# Laboratory results as given in patent publication US11944613B2, “CYP2J2 antagonists in the treatment of pain” (FRAUNHOFER-GESELLSCHAFT ZUR FÖRDERUNG DER ANGEWANDTEN …, priority 2014, dated 2024).
# What was measured:
# DRG neurons = experiment: Calcium imaging: 9,10-EpOME-evoked calcium transients in DRG neurons; format: cell-based, mouse
# Experimental: FIG. 2: Direct effects of 9,10-EpOME on DRG-neurons. (a) Application of 9,10-EpOME [10 μM, 30 s] causes calcium transients on DRG neurons which respond to high potassium (50 mM KCl, 30 s). A representative trace is shown. (b) Dose response relationship of 9,10-EpOME dependent calcium increases in DRG neurons related to the number of responding neurons Data represents the mean ±SEM of five measurements per concentration. (c) and (d) Calcium transients caused by 9,10-EpOME [10 μM, 30 s] can be disrupted using calcium-free medium containing EGTA (2 mM) washed in 2 minutes before and after 9,10-EpOME stimulation. Data represents the mean ±SEM of 24 (calcium-free) or 16 (control) neurons. (e) and (f) Calcium transients of 9,10-EpOME [10 μM, 30 s] can be blocked by a selective TRPV1 antagonist (AMG 9810, 1 μM) but not by a selective TRPA1 antagonist (HC-030031, 20 μM) washed in for two minutes prior to the second 9,10-EpOME stimulation. Data represents the mean ±SEM of 16 (control), 31 (AMG 9810) or 18 (HC-030031) neurons; **p<0.01, student's t-test.
# Next, the inventors characterized 9,10-EpOME concerning its effects on DRG-neurons in calcium imaging experiments. […]
# TRPV1 = TRPV1 (Mus musculus, UniProt Q704Y3); experiment: Calcium imaging: TRPV1 sensitization, double capsaicin stimulation of DRG neurons; conditions: 9,10-EpOME 1 μM for two minutes; capsaicin 200 nM, 15 s
# TRPV1, sequence (Q704Y3 whole entry): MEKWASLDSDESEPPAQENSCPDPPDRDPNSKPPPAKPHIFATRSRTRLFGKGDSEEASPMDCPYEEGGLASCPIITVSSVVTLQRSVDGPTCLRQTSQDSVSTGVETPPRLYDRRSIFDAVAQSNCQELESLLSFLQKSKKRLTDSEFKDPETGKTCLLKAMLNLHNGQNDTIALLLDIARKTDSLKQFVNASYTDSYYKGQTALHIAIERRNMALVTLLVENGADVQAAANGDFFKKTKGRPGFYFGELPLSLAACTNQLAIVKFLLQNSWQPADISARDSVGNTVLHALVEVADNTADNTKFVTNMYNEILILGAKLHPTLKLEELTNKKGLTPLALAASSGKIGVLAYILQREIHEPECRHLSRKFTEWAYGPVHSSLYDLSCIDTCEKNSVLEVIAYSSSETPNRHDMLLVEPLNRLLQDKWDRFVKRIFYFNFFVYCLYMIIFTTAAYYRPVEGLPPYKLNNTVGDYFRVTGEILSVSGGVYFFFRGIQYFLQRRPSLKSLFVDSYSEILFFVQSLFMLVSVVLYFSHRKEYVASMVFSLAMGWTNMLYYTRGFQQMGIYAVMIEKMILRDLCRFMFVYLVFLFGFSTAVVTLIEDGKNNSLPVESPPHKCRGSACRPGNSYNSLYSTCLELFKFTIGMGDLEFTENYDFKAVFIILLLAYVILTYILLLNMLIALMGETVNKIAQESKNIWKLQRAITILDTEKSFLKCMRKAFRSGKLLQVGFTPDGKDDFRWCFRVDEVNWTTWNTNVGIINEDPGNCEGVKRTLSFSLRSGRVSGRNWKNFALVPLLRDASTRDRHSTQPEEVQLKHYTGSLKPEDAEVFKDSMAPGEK
structure (smiles),measurement,setting,value
"CCCCC/C=C\CC1OC1CCCCCCCC(=O)O (stereo not drawn) [9,10-EpOME, 9,10-epoxy-12Z-octadecenoic acid]",calcium transient in DRG neurons,"DRG neurons; 10 μM, 30 s stimulation",caused a calcium transient in DRG neurons
same,maximum percentage of DRG neurons responding with calcium transients,"DRG neurons; 25 μM of 9,10-EpOME",10.3%
same,response of DRG neurons to second capsaicin stimulus (TRPV1 sensitization),TRPV1,significantly stronger response
